Measured values from the supplement of paper PMC4604168 (melanoma cell lines).
Some of the results follow. Single values are uncertain, as repeats are few or missing.

What was measured:
Assay in all cases: cell count relative to DMSO control; melanoma cells; higher = more viable cells
Conditions in all cases: library dose: low library concentration; 72 h
[1] = system: WM115
[2] = system: WM1716
[3] = system: WM1745
[4] = system: WM3526
[5] = system: WM3619
[6] = system: WM451Lu
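Also: cell number obtained by counting DAPI-stained nuclei in high-throughput microscope images with image analysis software, screen run in 1,536-well plates.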

Structure (SMILES)	cell count [1]	cell count [2]	cell count [3]	cell count [4]	cell count [5]	cell count [6]
Nc1ncn([C@H]2C[C@H](O)[C@@H](CO)O2)c(=O)n1 [decitabine] + O=c1cc(-c2cccc3c2Sc2ccccc2S3)oc(N2CCOCC2)c1 [KU55933] (first compound 0.1 µM, partner dose 1 µM)	77.9%	94.8%	110%	87.7%	113%	99.5%
Nc1ccn([C@@H]2O[C@H](CO)[C@@H](O)C2(F)F)c(=O)n1 [gemcitabine] + C=CCn1c(=O)c2cnc(Nc3ccc(N4CCN(C)CC4)cc3)nc2n1-c1cccc(C(C)(C)O)n1 [MK1775] (first compound 0.0004 µM, partner dose 0.02 µM)	87.8%	78%	37.6%	98.1%	59.4%	85.3%
CO[C@H]1C[C@@H]2CC[C@@H](C)[C@@](O)(O2)C(=O)C(=O)N2CCCC[C@H]2C(=O)O[C@H]([C@H](C)C[C@@H]2CC[C@@H](OCCO)[C@H](OC)C2)CC(=O)[C@H](C)/C=C(\C)[C@@H](O)[C@@H](OC)C(=O)[C@H](C)C[C@H](C)/C=C/C=C/C=C/1C [everolimus] + COCC[n+]1c2c(n(Cc3cnccn3)c1C)C(=O)c1ccccc1C2=O [YM155] (first compound 0.02 µM, partner dose 0.0004 µM)	88.3%	83%	78.7%	83.9%	81.3%	71.3%
Nc1ccn([C@@H]2O[C@H](CO)[C@@H](O)C2(F)F)c(=O)n1 [gemcitabine] + CCCS(=O)(=O)Nc1ccc(F)c(C(=O)c2c[nH]c3ncc(Cl)cc23)c1F [PLX4720] (first compound 0.0004 µM, partner dose 0.08 µM)	91.7%	116%	86.8%	80%	78.6%	91.8%
CC(=O)O[C@@]12CO[C@@H]1C[C@H](O)[C@@]1(C)C(=O)[C@H](O)C3=C(C)[C@@H](OC(=O)[C@H](O)[C@@H](NC(=O)OC(C)(C)C)c4ccccc4)C[C@@](O)([C@@H](OC(=O)c4ccccc4)[C@H]21)C3(C)C [Docetaxel] + COc1ccc(Cl)c(Nc2nc3ccccc3nc2NS(=O)(=O)c2cccc(NC(=O)C(C)(C)N)c2)c1 [XL147] (first compound 0.0001 µM, partner dose 0.8 µM)	66%	40.1%	61.9%	46.8%	66.3%	56%
Nc1ccn([C@@H]2O[C@H](CO)[C@@H](O)C2(F)F)c(=O)n1 [gemcitabine] + Cn1c(Nc2ccc(C(F)(F)F)cc2)nc2cc(Oc3ccnc(-c4ncc(C(F)(F)F)[nH]4)c3)ccc21 [CHIR265] (first compound 0.0004 µM, partner dose 0.08 µM)	79.8%	71.6%	70%	70.3%	60.8%	116%
CO[C@H]1C[C@@H]2CC[C@@H](C)[C@@](O)(O2)C(=O)C(=O)N2CCCC[C@H]2C(=O)O[C@H]([C@H](C)C[C@@H]2CC[C@@H](OCCO)[C@H](OC)C2)CC(=O)[C@H](C)/C=C(\C)[C@@H](O)[C@@H](OC)C(=O)[C@H](C)C[C@H](C)/C=C/C=C/C=C/1C [everolimus] + C=C(c1ccc(C(=O)O)cc1)c1cc2c(cc1C)C(C)(C)CCC2(C)C [Bexarotene] (first compound 0.02 µM, partner dose 2 µM)	85.8%	64.1%	88.6%	56.9%	88.2%	74.9%
Nc1nc(F)nc2c1ncn2[C@@H]1O[C@H](CO)[C@@H](O)[C@@H]1O [fludarabine] + O=S(=O)(c1ccccc1)N(CC(F)(F)F)c1ccc(C(O)(C(F)(F)F)C(F)(F)F)cc1 [T0901317] (first compound 0.2 µM, partner dose 1.4 µM)	91.6%	101%	92.1%	28%	103%	44.4%
CC(=O)O[C@@]12CO[C@@H]1C[C@H](O)[C@@]1(C)C(=O)[C@H](O)C3=C(C)[C@@H](OC(=O)[C@H](O)[C@@H](NC(=O)OC(C)(C)C)c4ccccc4)C[C@@](O)([C@@H](OC(=O)c4ccccc4)[C@H]21)C3(C)C [Docetaxel] + Cn1cncc1[C@@](N)(c1ccc(Cl)cc1)c1ccc2c(c1)c(-c1cccc(Cl)c1)cc(=O)n2C [tipifarnib] (first compound 0.0001 µM, partner dose 0.01 µM)	69%	31.8%	57.6%	47.6%	63%	64%
Nc1nc(F)nc2c1ncn2[C@@H]1O[C@H](CO)[C@@H](O)[C@@H]1O [fludarabine] + COCC[n+]1c2c(n(Cc3cnccn3)c1C)C(=O)c1ccccc1C2=O [YM155] (first compound 0.2 µM, partner dose 0.0004 µM)	68%	94.3%	75.9%	17.9%	81.9%	39.4%
CO[C@H]1C[C@@H]2CC[C@@H](C)[C@@](O)(O2)C(=O)C(=O)N2CCCC[C@H]2C(=O)O[C@H]([C@H](C)C[C@@H]2CC[C@@H](OCCO)[C@H](OC)C2)CC(=O)[C@H](C)/C=C(\C)[C@@H](O)[C@@H](OC)C(=O)[C@H](C)C[C@H](C)/C=C/C=C/C=C/1C [everolimus] + COc1cc2ncnc(Nc3ccc(Oc4ccccc4)cc3)c2cc1OC [SrcI1] (first compound 0.02 µM, partner dose 2 µM)	73.9%	84.3%	80.8%	78%	70%	89.3%
Nc1ncn([C@H]2C[C@H](O)[C@@H](CO)O2)c(=O)n1 [decitabine] + CC1(C)NC(=O)N(c2ccc([N+](=O)[O-])c(C(F)(F)F)c2)C1=O [nilutamide] (first compound 0.1 µM, partner dose 1 µM)	76.8%	78.3%	116%	116%	123%	131%
CC(=O)O[C@@]12CO[C@@H]1C[C@H](O)[C@@]1(C)C(=O)[C@H](O)C3=C(C)[C@@H](OC(=O)[C@H](O)[C@@H](NC(=O)OC(C)(C)C)c4ccccc4)C[C@@](O)([C@@H](OC(=O)c4ccccc4)[C@H]21)C3(C)C [Docetaxel] + Cn1c(=O)n(-c2ccc(C(C)(C)C#N)cc2)c2c3cc(-c4cnc5ccccc5c4)ccc3ncc21 [NVP-BEZ235] (first compound 0.0001 µM, partner dose 0.004 µM)	55.1%	32.6%	38.7%	45.3%	70.3%	60.8%
Nc1ccn([C@@H]2O[C@H](CO)[C@@H](O)C2(F)F)c(=O)n1 [gemcitabine] + COc1cc2ncnc(Nc3ccc(Oc4ccccc4)cc3)c2cc1OC [SrcI1] (first compound 0.0004 µM, partner dose 2 µM)	96.3%	117%	71.7%	71.4%	79.3%	92.2%
Nc1nc(F)nc2c1ncn2[C@@H]1O[C@H](CO)[C@@H](O)[C@@H]1O [fludarabine] + O=C1NC(=O)/C(=C/c2ccc(-c3ccc(F)cc3O)o2)S1 [AS252424] (first compound 0.2 µM, partner dose 1 µM)	95.2%	101%	84.6%	25.6%	89.9%	40.7%
CO[C@H]1C[C@@H]2CC[C@@H](C)[C@@](O)(O2)C(=O)C(=O)N2CCCC[C@H]2C(=O)O[C@H]([C@H](C)C[C@@H]2CC[C@@H](OCCO)[C@H](OC)C2)CC(=O)[C@H](C)/C=C(\C)[C@@H](O)[C@@H](OC)C(=O)[C@H](C)C[C@H](C)/C=C/C=C/C=C/1C [everolimus] + CS(=O)(=O)CCNCc1ccc(-c2ccc3ncnc(Nc4ccc(OCc5cccc(F)c5)c(Cl)c4)c3c2)o1 [lapatinib] (first compound 0.02 µM, partner dose 0.8 µM)	69.9%	81.5%	85.1%	63.8%	85.4%	73.8%
CC(=O)c1c(C)c2cnc(Nc3ccc(N4CCNCC4)cn3)nc2n(C2CCCC2)c1=O [palbociclib] + Clc1ccc(Nc2nnc(Cc3ccncc3)c3ccccc23)cc1 [vatalanib] (first compound 0.04 µM, partner dose 2 µM)	73.3%	75.3%	69.7%	66.8%	85.4%	89.5%
CC(=O)O[C@@]12CO[C@@H]1C[C@H](O)[C@@]1(C)C(=O)[C@H](O)C3=C(C)[C@@H](OC(=O)[C@H](O)[C@@H](NC(=O)OC(C)(C)C)c4ccccc4)C[C@@](O)([C@@H](OC(=O)c4ccccc4)[C@H]21)C3(C)C [Docetaxel] + CC(C)(C)c1cnc(CSc2cnc(NC(=O)C3CCNCC3)s2)o1 [SNS-032] (first compound 0.0001 µM, partner dose 0.01 µM)	63.1%	41.4%	54.6%	38.2%	79.4%	60%
CC(=O)O[C@@]12CO[C@@H]1C[C@H](O)[C@@]1(C)C(=O)[C@H](O)C3=C(C)[C@@H](OC(=O)[C@H](O)[C@@H](NC(=O)OC(C)(C)C)c4ccccc4)C[C@@](O)([C@@H](OC(=O)c4ccccc4)[C@H]21)C3(C)C [Docetaxel] + COCC[n+]1c2c(n(Cc3cnccn3)c1C)C(=O)c1ccccc1C2=O [YM155] (first compound 0.0001 µM, partner dose 0.0004 µM)	62.6%	41%	49.3%	57.6%	70.4%	47.1%
CC(=O)c1c(C)c2cnc(Nc3ccc(N4CCNCC4)cn3)nc2n(C2CCCC2)c1=O [palbociclib] + COCC[n+]1c2c(n(Cc3cnccn3)c1C)C(=O)c1ccccc1C2=O [YM155] (first compound 0.04 µM, partner dose 0.0004 µM)	85.7%	73.3%	76.3%	50.5%	87%	77.8%
CC(=O)O[C@@]12CO[C@@H]1C[C@H](O)[C@@]1(C)C(=O)[C@H](O)C3=C(C)[C@@H](OC(=O)[C@H](O)[C@@H](NC(=O)OC(C)(C)C)c4ccccc4)C[C@@](O)([C@@H](OC(=O)c4ccccc4)[C@H]21)C3(C)C [Docetaxel] + C=CCn1c(=O)c2cnc(Nc3ccc(N4CCN(C)CC4)cc3)nc2n1-c1cccc(C(C)(C)O)n1 [MK1775] (first compound 0.0001 µM, partner dose 0.02 µM)	54.7%	32.4%	33.9%	42%	64.7%	51.8%
